Drawing on the RNAGym collection of RNA variant scans (doi:10.7554/elife.90254), this text covers self-cleavage for 56 variants.

The chains are these.
B1: LINE1-mini (parent)
chain: GGCAGAGCUCAACACAGCGUGGCAAAGUGGCUGUGGCUAGACUGCC

Read counts are not given, so values of variants with three or more changes are uncertain.

This series covers variants of B1. Put plainly: self-cleavage, relative activity (ratio to wild type); higher = more cleavage; in vitro, sequencing; the parent is a self-cleaving ribozyme.
On to GGAAGAACUCAACACAGCGUGGCAAAGUGGCUGGGGCUAGACUGCC [C3A G7A U34G], for which the self-cleavage stood at 0.29.

Consider GGAAUAGCUCAACACAGCGUGGCAAAGUGGCUGUGGCUAGAAUGCC [C3A G5U C42A], for which the self-cleavage came to 0.15.

Take GGAAUAGCUCAAGACAGCGUGGCACAGAGGCUGUGCCUAGACUGCC [C3A G5U C13G A25C U28A G36C]: the self-cleavage was found to be 0.43.

For the variant GGAAGACCUCAACACAGCGUGGCAAAGUGGCUGUGGCUAGACCGCC [C3A G7C U43C], the self-cleavage was 0.08.

Take GGAAGACCUCAACACUGCGUGGCAAAGUGGCAGUGGCUAGACUGCC [C3A G7C A16U U32A]: the self-cleavage is 0.1.

As to GGAAGAGCUCAACACACCGUGGCAAAGUGGCUCUGGCUAGACUGCC [C3A G17C G33C], the self-cleavage came out at 0.08.

On to GGAAGAGCUCAACACAGCUUGGCAAAGUGGAUGUGGCUGGACUGCC [C3A G19U C31A A39G], for which the self-cleavage amounted to 0.08.

Take GGAAGAUCUCAAUACAGCGUGGCAAAGUGGCUGUGGCUAGACUGCC [C3A G7U C13U]: the self-cleavage is 0.31.

For the variant GGAAGAGCUCAACACAGCCUGGCAGAGUGGCUGUGGCUAGACUGCC [C3A G19C A25G], the self-cleavage is 0.1.

On to GGAAGACCUCAACACAGCGUGGCAAAGUGGCUGUGUCUAGACUGCC [C3A G7C G36U], for which the self-cleavage was 0.09.

GGAACAGCUCAACACAGCGUUGCAAAGUGGCUGUGGCUAGACUGCC [C3A G5C G21U]: the self-cleavage stood at 1.46.

In the case of GGAAGAACUCAACACAGCGUGGCAAAGUGGCUGAGGCUGUAUUGCC [C3A G7A U34A A39G G40U C42U], the self-cleavage was found to be 0.03.

Regarding GGAAGAGCUCAACACAGCAUGGCAAAGUGGCUGUGGCUAGAGUGCC [C3A G19A C42G], the self-cleavage was found to be 0.12.

GGAACAGCUAAACACAGCGUGGCAAAGUGGCUCUUUAUGGACUGCC [C3A G5C C10A G33C G35U G36U C37A A39G]: the self-cleavage was found to be 0.05.

For the variant GGAACAGCUCAACACAGCGUGGCAAAGUGGAUGUGGCUAGACUGCC [C3A G5C C31A], the self-cleavage is 0.07.

For GGAAGACUUCUACACAGCGUGGUAAAGUGGCUGUGGCUAGACUGCC [C3A G7C C8U A11U C23U], the self-cleavage amounted to 0.07.

Consider GGAAGACCUCAACACUGCGUGGCAAAGUGCCUGUGGCUAGACUGCC [C3A G7C A16U G30C], for which the self-cleavage is 0.08.

For GGAAGACCUCAACAAAGCGUGGCAAAGUGGUUGUGGCUAGACUGCC [C3A G7C C15A C31U], the self-cleavage amounted to 0.06.

With GGAACAGCUCAACACAGCGUGGCAGAGUGGCUGUGGCUAGACUGCC [C3A G5C A25G], the self-cleavage was found to be 0.19.

As to GGAAAAGCUGAACACAACGUGGCAAAGUGGCUGUGGCUAGACUGCC [C3A G5A C10G G17A], the self-cleavage came out at 0.06.

For the variant GGAAGAUCUCAACACAGCAUGGCAAAGUGGCUGUGGCUAUACUACC [C3A G7U G19A G40U G44A], the self-cleavage worked out at 0.12.

GGAACGGCUCAACACAGCGUGGCAAAGUGGCUCUGGGUAGACUGCC [C3A G5C A6G G33C C37G]: the self-cleavage is 0.37.

Consider GGAAGAGCUCAACACAGCCUGGCAAAGUGGCUGUGGGUAGACUGCC [C3A G19C C37G], for which the self-cleavage was 0.03.

Regarding GGAAGAGCUCAACACAAACUGGCAAAGUGGAUGUGGCUAGACUGCC [C3A G17A C18A G19C C31A], the self-cleavage amounted to 0.06.

Regarding GGAAGAGCUCAACACAGCGUGGCAAAGUGGUUGUGUCUAGACUGCC [C3A C31U G36U], the self-cleavage was 0.33.

Turning to GGAAGAGCUCAACACAUCGUGGAAAAGUGGCUGUGGCUAGACUGCC [C3A G17U C23A], the self-cleavage was 0.24.

As to GGAAUAGCUAAACACAGCGUGGCAAAGCGGCUGUGGCUGGACUGCC [C3A G5U C10A U28C A39G], the self-cleavage turned out to be 0.06.

Consider GGAAUAGCUCAACACAGCGUGGCAAAGUGGCUGUGGCUACACUGUG [C3A G5U G40C C45U C46G], for which the self-cleavage was found to be 0.03.

Take GGAAAAGUUCAAAACAGCGUGGCAAAGUGGCGGUGGCUAGACUACC [C3A G5A C8U C13A U32G G44A]: the self-cleavage was 1.05.

As for GGAAGAUCUCAACCCAGCGUGGCAAAGUGGCUUUGGCUAGACUGCC [C3A G7U A14C G33U], the self-cleavage stood at 0.11.

As to GGAAGAUCUUAACACAGCGUGGCAAAGUGGCUGUGGCUAGUCUGCC [C3A G7U C10U A41U], the self-cleavage came out at 0.27.

In the case of GGAAUAGCUCAACAAAGCGUGGCAAAGUUGCUGUGGCUUGACUGCC [C3A G5U C15A G29U A39U], the self-cleavage came out at 1.02.

Turning to GGAAUAUCUCAACACAGCGUGGCAAAGUGGCUGUGGGUAGACUGCC [C3A G5U G7U C37G], the self-cleavage turned out to be 0.14.

Take GGAAAAGCUCGACACAGCGUGGCAAAGUGGCUGUGGCUAGACUGCC [C3A G5A A11G]: the self-cleavage was 0.12.

Consider GGAAGAGCUCAACACAACGUGGCAAAGUGGCUGCGGCUAGACUGCU [C3A G17A U34C C46U], for which the self-cleavage amounted to 0.09.

GGAAUAGCGCAACACAGCGUGGCAAAGUGGCUGUGGAUAGACAGCC [C3A G5U U9G C37A U43A]: the self-cleavage was found to be 0.19.

GGAAGAACUCAACACAGCGUGGCAAGGUGGCUGGGGCUAGACUGGC [C3A G7A A26G U34G C45G]: the self-cleavage was found to be 0.13.

With GGAAGAGCUCAACACAGCGUGGCAAAGUGGCUGUGGUUAGAAUGCC [C3A C37U C42A], the self-cleavage worked out at 0.07.

On to GGAAUGGCUCAACACAGCGUGGCAAAGAGGUUGUGGCUCGACUGCC [C3A G5U A6G U28A C31U A39C], for which the self-cleavage stood at 0.19.

On to GGAACAGCUAAAAACAGCGUGGCAAAGUCGCUGUGGCUAGACUGCC [C3A G5C C10A C13A G29C], for which the self-cleavage came out at 0.02.

Regarding GGAAGAACUCAACACAGCGUGGCAAAGCGGCUGUGGCUAGACUGCC [C3A G7A U28C], the self-cleavage worked out at 0.12.

Consider GGAAGAUCUCAACACAGCGUGGCAAAGUGGCUGUGGCUAAACUGCC [C3A G7U G40A], for which the self-cleavage was 0.32.

On to GGAACAGCUCAACACAGCGUGGCAAAGUGGUUGUGGCUAGAGUGUC [C3A G5C C31U C42G C45U], for which the self-cleavage was determined as 0.17.

Turning to GGAAGAGCUCAACACAGCUUGGCACAGUGGCUGUGGCUAGAAUGCC [C3A G19U A25C C42A], the self-cleavage is 0.06.

GGAAAAGCUAAACACAGCGUGGAACAGUGGCGGUGGCUAGACUGCC [C3A G5A C10A C23A A25C U32G]: the self-cleavage was 0.01.

Take GGAAUAGCUCAGCACAGUGUGGCUAAGUGGUUGUGGCUAGACUGCC [C3A G5U A12G C18U A24U C31U]: the self-cleavage was 0.04.

On to GGAAGAGCUCAACACAGCUUGGCAAAGUGGCUGUGGCUUGACUGCU [C3A G19U A39U C46U], for which the self-cleavage was found to be 0.01.

For the variant GGAAGAUCUCAACACAGCGUGGCAAAGUGGCUGUGGCUAGGCUGCC [C3A G7U A41G], the self-cleavage worked out at 0.2.

On to GGAAGAGCUCAACACAACGUGGCGAAGUGGCUGUGGCUAGACUGCC [C3A G17A A24G], for which the self-cleavage is 0.21.

For GGAAGACCUCAACACAGCGUGGCAAAGUGGCUCUGGCUACACUGCC [C3A G7C G33C G40C], the self-cleavage was found to be 0.03.

Turning to GGAAGAGCUCAACACACCUUGGCAAAGUGGCUGUGGCUAAAAUGCC [C3A G17C G19U G40A C42A], the self-cleavage is 0.05.

In the case of GGAAGAACUCAACACAGUGUGGCAAAUUGGCUGUCACUAGACUGCC [C3A G7A C18U G27U G35C G36A], the self-cleavage was 0.11.

As for GGAAGAGCUCAACACAGCCUGGCUAAGUGGCUGUGGCUAGACUGCC [C3A G19C A24U], the self-cleavage turned out to be 0.02.

As to GGAAGAGCUCAACACACCGUGGCAAAGUGGUUGUGGCUAAACUGCC [C3A G17C C31U G40A], the self-cleavage was 0.01.

Take GGAAAAGCUGAACACAUCGUGGCAAACUGGCUGUGGCUAGACUGCC [C3A G5A C10G G17U G27C]: the self-cleavage stood at 0.03.

In the case of GGAAGAGCUCAACACAGCGUAGAAAAGUCGCUGUAGCUAGACUGCC [C3A G21A C23A G29C G35A], the self-cleavage was found to be 0.31.
